Experiments:
[1] = biological target: preformed binary complex IL-1β/IL-1RI-ECD ( | human, UniProt P01584 117-269; P14778 18-331); assay: SPR
[2] = biological target: T1, preformed binary complex IL-33/ST2-ECD ( | human, UniProt O95760 112-270; Q01638 19-321); assay: SPR
T1 sequence (looked up) 1: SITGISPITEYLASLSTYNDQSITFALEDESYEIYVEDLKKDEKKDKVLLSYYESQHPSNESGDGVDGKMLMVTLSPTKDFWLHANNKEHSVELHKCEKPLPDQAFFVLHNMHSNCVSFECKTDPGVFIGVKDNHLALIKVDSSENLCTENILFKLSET
T1 sequence (looked up) 2: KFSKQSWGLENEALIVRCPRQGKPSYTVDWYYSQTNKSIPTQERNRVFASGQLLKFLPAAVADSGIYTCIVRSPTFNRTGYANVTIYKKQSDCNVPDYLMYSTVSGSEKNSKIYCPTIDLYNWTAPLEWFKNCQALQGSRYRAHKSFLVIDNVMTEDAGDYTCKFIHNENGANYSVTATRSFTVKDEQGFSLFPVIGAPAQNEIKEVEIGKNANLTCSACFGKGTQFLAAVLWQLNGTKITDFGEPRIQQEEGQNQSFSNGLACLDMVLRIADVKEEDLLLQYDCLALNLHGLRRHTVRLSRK

- Kd [1]: 6 nM
- Kd [2]: 31 nM
B1: IL-1RAcP-ECD (extracellular domain of IL-1 receptor accessory protein), wild type (receptor)
chain: not shown

— article PMC6687543 (Structure (London, England : 1993), 2019)
